Some of the results follow.
Test system: PfSIP2 AP2 domain 1 (GST-tagged)
Test: gcPBM binding intensity (ln(normalized median fluorescence intensity)); higher = stronger DNA binding
In short: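 DNA-binding domains from P. falciparum, fused to GST and produced in E. coli, were put on an Agilent 4 × 180k double-stranded probe array for 1 h in 1× PBS holding 1% milk, 0.2 mg/ml BSA, 0.5% salmon testes DNA and 0.03% Triton X-100. Probes were primer-extended, 36 bp long and drawn from intergenic genomic regions, with negative controls included. After Alexa488 anti-GST antibody detection and a 488 nm scan, binding intensity was set as the highest Masliner-normalised natural-log median intensity across replicate spots of either probe orientation.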

Compared with “TTATATTTATTTAATGAACACACGATATATTATTTT [CACACA_site1601]”, “AAAAAAATTAATAATGTGCACTTTTTAGTATTTTTA [GTGCAC_site9744]” is higher in “gcPBM binding intensity (ln)” value: 6.88 for the first, 10.3 for the second.

Compared with “AAATGTTAATTAAATGCATGTACAAAAGGAGCGAAT [TGCATGCA_site942]”, “TTGTAGATATTTATATGTACGAATTTATAAATATAG [XGTACX_site3611]” is lower in “gcPBM binding intensity (ln)” value: 7.99 for the first, 7.12 for the second.

Going from “TTATTTATCAAAAAATGTACAAAAATATATAAACAA [XGTACX_site940]” to “TTTGTCAACCAAAATTGTACAAATGTATTCCCAATA [XGTACX_site1350]”, the “gcPBM binding intensity (ln)” value falls from 7.26 to 6.75.

Compared with “ATACATATTAATATGTGTACACATTTTTATTTTTTT [XGTACX_site930]”, “AAAAAAAAAAAAAAAGGTACACAAAACGGTATTATT [XGTACX_site7064]” is higher in “gcPBM binding intensity (ln)” value: 6.99 for the first, 7.43 for the second.

Compared with “AACTCATAGGAGTGTGCACACAAAAAATTAAAAAAA [CACACA_site8996]”, “TTTTTTTTTTTTGTCACACATATGGAATATATCTAT [CACACA_site5899]” is lower in “gcPBM binding intensity (ln)” value: 9.24 for the first, 6.91 for the second.

Going from “CTCAAAAAATATGAACGTACAAAATAAGTAATGACA [XGTACX_site590]” to “TTTTTTTTTTTTTTTGCACACATTTTAATTATTTTT [CACACA_site341]”, the “gcPBM binding intensity (ln)” value falls from 7.17 to 7.04.

Going from “AACTTTAAACCCTGAACACACACAAATACACCCAAA [CACACA_site7971]” to “TATATATATATATATATATATATATATGTATATATG [XGTACX_negctrl_site242]”, the “gcPBM binding intensity (ln)” value rises from 7.44 to 9.63.

First: ATAATCCACAAGCACACACACACACCCATATATATA [CACACA_site1268]
Second: CACCAAAATATATGTACATATGATAAATGTGAATAT [GTGCAC_negctrl_site83]
The “gcPBM binding intensity (ln)” value of the first is higher: 7.51 for the first, 7.24 for the second.

Going from “AAAATTATCGTTATATGTACGCATCTTAATACGTAT [XGTACX_site4063]” to GTCTATATATTTTAGGTGCAACGTAAATGTAAAAAT, the “gcPBM binding intensity (ln)” value rises from 7.08 to 10.7.

Compared with “TTTTACAATATTTTGTGTACTTATATTATGAGCTTA [XGTACX_site3287]”, “TAACTTTTTTTTTTTTTTTTTTAACTTTTATGTAAT [GTGCAC_negctrl_site156]” is lower in “gcPBM binding intensity (ln)” value: 7.04 for the first, 6.84 for the second.

First: ATTTCCTTGAATGTTGCATGCTGTATTTTAATTAAA [TGCATGCA_site280]
Second: AAAAAAAGGAAATTTACACACACATATAATATACAT [CACACA_site3297]
The “gcPBM binding intensity (ln)” value of the first is lower: 6.85 for the first, 6.86 for the second.

Going from “AAAAAAAAAAAGTGCACACATAAAAATATGATCTAA [CACACA_site572]” to “TAAATTTTTCTAAGTGCATGTTAATTTTTCAATTTA [TGCATGCA_site906]”, the “gcPBM binding intensity (ln)” value falls from 11.5 to 9.5.

Going from TAGATTATTATACTAGTGCAAATTATTTAAGAAAAA to “ATATTATTTATAAAAGTGCAAAAATCACTTCTTTTA [GTGCAC_site9656]”, the “gcPBM binding intensity (ln)” value falls from 8.09 to 8.04.

Going from “TTTAAAAAGTTATGAAGTACATATATATATATATAT [XGTACX_site2188]” to TAATATCGTATATGAGTGCAATATTTTAGATTTTGA, the “gcPBM binding intensity (ln)” value falls from 9.69 to 7.91.

Going from “TGCACGCACAGACACACACACAACTAAAAAATAATG [CACACA_site7250]” to “AAAAAAAGGTAAAATTGTACATACGCACAAAAATAT [XGTACX_site2887]”, the “gcPBM binding intensity (ln)” value falls from 7.33 to 7.22.

Compared with “AATAAATTCATGAATTGTACGTAATGATAACATGAA [XGTACX_site2591]”, “ATTTTCTTTTTTAAACGTACACATATTAAATATATA [XGTACX_site7773]” is higher in “gcPBM binding intensity (ln)” value: 7.11 for the first, 7.53 for the second.

Going from “TTTTTATTCCAGTATTCACACACGAATAACCACATA [CACACA_site1897]” to “TTATAACTTTTCACAAGTACATATATATATGTATAA [XGTACX_site2306]”, the “gcPBM binding intensity (ln)” value rises from 6.99 to 7.18.

Going from “ATATATATGTTTTTATGTACATATTTTTCTCCTTCA [XGTACX_site5899]” to “TTTGGAAAGCGTGATTTTTGACAAACACAAAAAAAA [CACACA_negctrl_site651]”, the “gcPBM binding intensity (ln)” value falls from 7.17 to 6.81.

Compared with “ATTATTTTATGAGACATAAAAAAAAAAAAAAAAAAA [CACACA_negctrl_site1067]”, “AGATGAGAGATATATACACACAATAATACCTATTTA [CACACA_site6542]” is lower in “gcPBM binding intensity (ln)” value: 7.41 for the first, 6.89 for the second.

First: TACAATATTTCGAGCTTGCACTTTTATTAAGTAAAT
Second: TATCTGTATTTGTATACACACAAATGTATTTATTTA [CACACA_site4830]
The “gcPBM binding intensity (ln)” value of the first is higher: 7.62 for the first, 7.03 for the second.

First: TATACAGACAGACACACACACATATATAAATATGTA [CACACA_site6912]
Second: ATTATTATTTTTAACTGTACATAGATATAGATATCC [XGTACX_site8714]
The “gcPBM binding intensity (ln)” value of the first is higher: 7.11 for the first, 6.96 for the second.

Going from “TAAGAAAAATATATATGTACACATATATATATATAT [XGTACX_site8542]” to “TGTATGTTATATACAACACACAAAAAAAAACAAGTT [CACACA_site301]”, the “gcPBM binding intensity (ln)” value falls from 9.09 to 6.87.

Compared with “AACTTTTATACGGATACACACAAAAAAAAATAAAAA [CACACA_site6547]”, “ATGTGTATACTAAGAACACACAAGTTACTTGGTGTT [CACACA_site6864]” is lower in “gcPBM binding intensity (ln)” value: 7.31 for the first, 6.77 for the second.

Compared with “TATTTAAAAGATGAAAGTACACATTTAATTACATTT [XGTACX_site3781]”, “TATATTTAACATACTTTTTTTTTTTTTTTTTTTTTT [CACACA_negctrl_site938]” is higher in “gcPBM binding intensity (ln)” value: 6.65 for the first, 8.56 for the second.

First: TAATTAGCATAATACACATGCATACATTTATATATA [TGCATGCA_site542]
Second: TACATATATCTATGTGTGCACTTATTTCCGGACAAA
The “gcPBM binding intensity (ln)” value of the first is lower: 7.01 for the first, 10.2 for the second.

First: AAAAAAAAAAAACATACACACAAGAACAAAATATGA [CACACA_site3002]
Second: AGTCTTTTACATTGCACACACATTTCTTTCCTTTTG [CACACA_site2988]
The “gcPBM binding intensity (ln)” value of the first is lower: 6.98 for the first, 7.41 for the second.

Going from “ATTAAATGATTCATATGTACATAAATAAATAAATAT [XGTACX_site2249]” to “TTTCTTTTTAAAGTGTATTAAAATTGAATAAAAAGA [XGTACX_negctrl_site408]”, the “gcPBM binding intensity (ln)” value falls from 7.23 to 7.21.

First: TATTAATATTTACACACATGCGCACACATAAATAAA [TGCATGCA_site609]
Second: TTTTTTTTTTTTGTCACACACCTTCATAAGAAAAAA [CACACA_site4779]
The “gcPBM binding intensity (ln)” value of the first is higher: 9.31 for the first, 7.1 for the second.

Going from “TAAATCCGCAGGCACACACACATATTAAGAAAAAAA [CACACA_site6061]” to “GTACAGATATTGTACATACACACCTATATAAATATC [CACACA_site5739]”, the “gcPBM binding intensity (ln)” value rises from 6.97 to 7.04.

First: ATGAAAAAACATAATTGTACAAAAGTTGGATTCGAT [XGTACX_site7732]
Second: ATCATCACATAAGAAAATAGATAAAAAAAAAAAAAT [XGTACX_negctrl_site589]
The “gcPBM binding intensity (ln)” value of the first is higher: 7.49 for the first, 6.82 for the second.

First: TGGGAACAATATATTTGTACTTAAATAAATAAAAAA [XGTACX_site6762]
Second: GAACAAAATGATAGAAGTACAAATATTTATTTTGTT [XGTACX_site7146]
The “gcPBM binding intensity (ln)” value of the first is higher: 7.02 for the first, 6.9 for the second.

Compared with “AAAGAGAAACAAAATTGTACATTATATTGTAGACGT [XGTACX_site976]”, “TATATTTATAAGTGTACACATTATATAAATCCCTAT [CACACA_site6122]” is higher in “gcPBM binding intensity (ln)” value: 7.06 for the first, 7.1 for the second.

Going from “ATAGGTGAATACTAATATAAATTCAAGAGGGAAAAG [CACACA_negctrl_site720]” to “TTTACATTAAATCACGCACACAAAAAAAAAAAAAAA [CACACA_site2418]”, the “gcPBM binding intensity (ln)” value rises from 6.89 to 7.3.

Compared with “TATATATATATAATGTGTACATACTAAATAGAGGAC [XGTACX_site4153]”, “GAAATGTATAAATCCATACACACATAAATTTTAATA [CACACA_site2364]” is lower in “gcPBM binding intensity (ln)” value: 9.23 for the first, 6.96 for the second.

Going from “TAAATATAAAAATGCACACACACAAAAAAAAAAAAA [CACACA_site895]” to “ATCTATGGAGCTTATACACACTTTTATATTTTAACA [CACACA_site5994]”, the “gcPBM binding intensity (ln)” value falls from 7.44 to 7.06.

Compared with “TTTGAATTTTTATATACACACATTATTATATTATAT [CACACA_site1593]”, “TATTTATTTGTGGGGTGTACGAAATTTTTTTTTTTT [XGTACX_site5091]” is higher in “gcPBM binding intensity (ln)” value: 7 for the first, 7.18 for the second.

Compared with “ATTATACATTTTAGATGTACATATTTTAAATTTAAT [XGTACX_site5174]”, “ATATTTTGTATAATCACACACACTATTCTTAAATAG [CACACA_site7270]” is higher in “gcPBM binding intensity (ln)” value: 6.97 for the first, 7.08 for the second.

Compared with “AGAAATTAATCGAAGTGTACATATAAACATACATAT [XGTACX_site5518]”, “AACAAACAAACAAATATACACACTTTTGTATAAAGT [CACACA_site3509]” is lower in “gcPBM binding intensity (ln)” value: 6.9 for the first, 6.81 for the second.

First: CCCACATAAAAAAATAAACACACATATGTATATATA [CACACA_site9040]
Second: AAATGGGCTTATTTATGTACTTAAATATATCTACCC [XGTACX_site3823]
The “gcPBM binding intensity (ln)” value of the first is higher: 7.03 for the first, 6.94 for the second.

Going from “TAATCAATTCAATATTGTACGATATTTACCTTTAAA [XGTACX_site4678]” to “TACATATATATATACACACATACATATATATACGCA [CACACA_site792]”, the “gcPBM binding intensity (ln)” value rises from 6.95 to 7.08.

Going from “AACCTCGTGTAATATGCATGTTCCCTTCAAAGTTTT [TGCATGCA_site459]” to “AAAAAAATCTATATTACACACATATATACCTATATA [CACACA_site7464]”, the “gcPBM binding intensity (ln)” value rises from 6.75 to 6.84.

First: TACATTGTATACATATGTACACATATATATATATAT [XGTACX_site6174]
Second: TATTTATGTTATAATTGTACAATAAACAAATTTTTT [XGTACX_site5306]
The “gcPBM binding intensity (ln)” value of the first is higher: 9.37 for the first, 6.93 for the second.

Compared with “AGCAGGATTAAAAAAAGTACAAGAATTAATATTTAA [XGTACX_site3413]”, “ATTTTTTATTGTTATAAAAAAAAAATTAAACAATTA [CACACA_negctrl_site1077]” is lower in “gcPBM binding intensity (ln)” value: 6.79 for the first, 6.75 for the second.

Going from “AATTATTATCCCCTCACACACAAAAATAAAAAGAAT [CACACA_site2885]” to “TATATCTATAATATTACACACATATATTTATATTTT [CACACA_site7595]”, the “gcPBM binding intensity (ln)” value falls from 7.56 to 7.

For “AAAGAAAATAACAAAATTTTGAAAACATCACATTCG [CACACA_negctrl_site89]”, the “gcPBM binding intensity (ln)” value was 6.92.

— the supplement of paper PMC11417369
